Measured values as given in PubChem BioAssay AID488895 (Broad Institute, 2010).
About 120 (0.035%) of roughly 340,000 compounds were called active. Inconclusive results, whose numbers are uncertain, are shown with a selection of clear calls.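 The calls were made as follows: active = mean replicate inhibition at least 50% and at least half of replicates individually reaching 50%; inconclusive = only one of the two criteria met; inactive = neither criterion met.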

Experiment: E. coli Tat export inhibitors, primary screen, MC4100, TorA-mCherry reporter, fluorescence, single point (AID 488895);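 also: exported cargo escapes ClpAP degradation while cytoplasmic cargo is degraded and loses fluorescence; 0% = median of neutral control wells and 100% = median of NaSCN control wells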
Conditions: at 10 µM, stronger effect = higher value

Compound | inhibition
Cc1ccc(OCC(=O)O/N=C(\N)c2cccnc2)cc1 | inactive: -3.17%
COc1ccc2nc(SCC(=O)Nc3nccs3)[nH]c2c1 | inconclusive: 34.2%
Cc1cc(C)n(C(N)=NC(=O)c2ccc([N+](=O)[O-])cc2)n1 | inactive: -3.65%
CCN1CCN(c2cc3c(cc2F)c(=O)c(C(=O)O)cn3C2CC2)CC1 | active: 146%
O=C(CN1CCN(c2ccc(O)cc2)CC1)Nc1ccc2c(c1)OCCO2 | inconclusive: 31.3%
O=c1cc(O)nc[nH]1 | inconclusive: 30.1%
CCCn1c2c(c(=N)c3c1CCC3)CCCC2 | inconclusive: 24.5%
CC1CC(OC(=O)C(O)c2ccccc2)CC(C)(C)N1C (stereo not drawn) | inconclusive: 19.6%
Nc1ccc2c(c1)-c1ccccc1S(=O)(=O)N2 | inconclusive: 42%
COc1cccc(CN(C(=O)Cc2c[nH]c3ccccc23)C(C(=O)NC2CCCCC2)c2ccc(C)o2)c1 (stereo not drawn) | inconclusive: 29.4%
CCCOc1ccc(/C(O)=C2/C(=O)C(=O)N(CCN(C)C)C2c2ccc(O)c(OC)c2)cc1 (stereo not drawn) | inconclusive: 33.6%
Cc1ccc(S(=O)(=O)N2CCC(C(=O)Nc3nnc(C)s3)CC2)cc1 | inconclusive: 37.6%
CC(C)Sc1nc2c(c(=O)[nH]c(=O)n2C)n1CCc1ccccc1 | inconclusive: 28.2%
CNC(=O)C(=O)NCCN1CCN(S(=O)(=O)c2ccc3ccccc3c2)CC1 | inconclusive: 28.4%
O=C(N/N=C/c1cc(Cl)c(O)c(Cl)c1)c1cc2c(ccc3ccccc32)o1 | inactive: -1.73%
Cn1cnnc1SC(C(=O)Nc1cc(Cl)cc(Cl)c1)c1ccccc1 (stereo not drawn) | inactive: -1.23%
O=S(=O)(N1CCCCC1)N1CCN(c2ccccc2F)CC1 | inconclusive: 33.7%
Cc1cccc(Oc2coc3cc(O)ccc3c2=O)c1 | inactive: -8.68%
COC(=O)CSc1ccc(C#N)c(SCC(=O)OC)c1 | inconclusive: 29%
CCOc1ccc2[nH]c(C)c(CN3CCCCC3)c(=O)c2c1 | inconclusive: 26.8%

Compound | inhibition
NC(=O)C1CCN(C(=O)CSc2nc3ccccc3o2)CC1 | inconclusive: 34.3%
CN(C(=O)c1cc2sccc2n1C)C1CCCCC1 | inconclusive: 31.7%
CCN(CC)S(=O)(=O)c1ccc(S(=O)(=O)Nc2ccc3c(c2)oc2ccccc23)cc1 | inconclusive: 31.5%
Cc1ccc(S(=O)(=O)NNC(=S)Nc2c(Cl)cccc2Cl)cc1 | inconclusive: 27%
COC(=O)C1=CN(C(C)C)C=C(C(=O)OC)C1c1cccc(OC)c1 | inconclusive: 22.6%
O=C(Nn1cnc2ccccc2c1=O)c1ccc(Br)cc1 | inactive: -0.863%
COc1ccc(NC(=O)C2CCCN2S(=O)(=O)c2cccc3cccnc23)c(OC)c1 (stereo not drawn) | inactive: -3.28%
Cc1cc(C(=O)COC(=O)c2ccncc2)c(C)n1Cc1ccco1 | inconclusive: 29.4%
CCOC(=O)c1sc(NC(=O)CCN2C(=O)c3cccc([N+](=O)[O-])c3C2=O)c(C(=O)OCC)c1C | inconclusive: 27.2%
COc1cc(NS(=O)(=O)c2ccc(NC(=S)NC(=O)c3sc4ccccc4c3Cl)cc2)ncn1 | inactive: 5.68%
C[C@H](NC(=O)c1nc[nH]c1C(=O)NCCCCCNC(=O)OC(C)(C)C)c1ccccc1 | inconclusive: 40.2%
Cc1ccc(CCC(=O)Nc2ccc([N+](=O)[O-])cc2)o1 | inactive: -11.1%
Cc1ccc(/C=N/NC(=O)C(C)Oc2cccc3ccccc23)o1 (stereo not drawn) | inactive: 15.8%
C=CCSc1nsc(NC(=O)Nc2ccc(F)cc2)n1 | inactive: -12.9%
Cc1ccc2c(C)nc(/N=C(\N)NC(=O)N3c4ccccc4Sc4ccccc43)nc2c1 | inconclusive: 36.7%
Cc1ccc(C)c(C(C)NC(=O)c2ccc(Br)o2)c1 (stereo not drawn) | inconclusive: 23.4%
CN(C)/C=N/c1sc2c(c1C#N)CC(C)(C)NC2(C)C | inconclusive: 26.9%
CC(C)(C)c1nnc(NC(=O)NS(=O)(=O)c2ccccc2)s1 | inconclusive: 22.3%
O=C(CCC(=O)Nc1ccccc1)N/N=C/c1ccncc1 | inconclusive: 25.1%
COc1ccc(C)c2sc(=NC(=O)c3ccccc3)n(C)c12 | inactive: -9.54%

Compound | inhibition
O=C(NCCCN1CCOCC1)c1cc2cc(Br)ccc2oc1=O | inconclusive: 26.7%
O=C(Nc1ccc(C(=O)O)cc1)/C(=C\C=C\c1ccccc1)NC(=O)c1ccccc1Br | inconclusive: 32.7%
Cc1cc(Oc2nc3c(C)cccn3c(=O)c2/C=C(\C#N)S(=O)(=O)c2ccc(Cl)cc2)ccc1Cl | inconclusive: 25.4%
CN(Cc1ccccc1)c1ncnc2sccc12 | inconclusive: 27.8%
S=C(NCCSCc1c(Cl)cccc1Cl)Nc1ccccc1 | inactive: 4.54%
Cc1ccccc1Nc1nnc(C)c(=O)[nH]1 | inconclusive: 35.7%
CC(=O)N1CCN(c2ccc(NC(=O)c3ccc([N+](=O)[O-])o3)cc2Cl)CC1 | inactive: -3.94%
CCN(CC)S(=O)(=O)c1ccc(OC)c(NC(=O)c2ccc(=O)[nH]c2)c1 | inconclusive: 32.3%
CC(=O)N1N=C(c2ccccc2)OC1c1ccc([N+](=O)[O-])s1 (stereo not drawn) | inactive: -1.71%
Nc1nc(=S)c2[nH]cnc2[nH]1 | inactive: -25.9%
CNC(=S)N1CCN(c2c(F)cc3c(=O)c(C(=O)O)cn(C4CC4)c3c2OC)CC1C (stereo not drawn) | active: 73.5%
COc1ccccc1NS(=O)(=O)c1cc(NC(C)=O)ccc1N1CCCCC1 | inconclusive: 33.5%
O=C(O)c1ccc(CSc2nnc(-c3ccncc3)n2-c2ccc(Cl)cc2)cc1 | inconclusive: 29.4%
Cc1ccc(CCNC(=O)CCS(=O)(=O)c2cc3c(cc2C)NC(=O)CO3)cc1 | inconclusive: 28.3%
c1ccc2c(N3CCOCC3)nc(-c3ccncc3)nc2c1 | inconclusive: 24.8%
COc1ccc(C(=O)c2c3ccccc3[n+]([O-])n2CCCN)cc1 | inconclusive: 42.9%
CC1(C)CC(=O)C(C=NCCCO)=C(O)C1 | inconclusive: 22.8%
O=C(CSc1cccc[n+]1[O-])Nc1ccccc1C(F)(F)F | inconclusive: 23.8%
